# The list shows a part of the results. Sequences were assembled here from the parent chain. Values near 0.05 are background.
# B1: TEV protease; numbered along this chain (parent)
# chain: MGESLFKGPRDYNPISSSICHLTNESDGHTTSLYGIGFGPFIITNKHLFRRNNGTLVVQSLHGVFKVKDTTTLQQHLVDGRDMIIIRMPKDFPPFPQKLKFREPQREERICLVTTNFQTKSMSSMVSDTSCTFPSGDGIFWKHWIQTKDGQCGSPLVSTRDGFIVGIHSASNFTNTNNYFTSVPKNFMELLTNQEAQQWVSGWRLNADSVLWGGHKVFMVKPEEPFQPVKEATQL
# Variants of: B1
# Assay: raw area under fraction-flipped curve 0-4 h after induction (AUC4h, not background-subtracted), DNA-recorder readout of cleavage of the substrate (dimensionless); higher = more cleavage of the substrate by the protease variant
# Details: temperature: 34 °C; time window: 0-4 h after rhamnose induction
# Method: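 In vivo DNA recorder in E. coli TOP10(DE3) ΔrhaA at 34 °C. Each TEVp single-site mutant (parent TEVp 0) is paired with a single-site variant of the 7-mer TEVs (canonical ENLYFQ|S). The substrate sits between flexible linkers in a Bxb1-sfGFP-TEVs-SsrA fusion, so cleavage stabilises Bxb1 and speeds flipping of a recombination array, read by NGS. The value is the raw area under the fraction-flipped curve over 0-4 h after rhamnose induction (AUC4h), with ≥20 reads per time point. It is not background-subtracted; inactive controls average about 0.047.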
# 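Note: Bxb1 expression induced with 0.2% (w/v) L-rhamnose at OD600 near 0.5, cultures sampled hourly, flipped fraction per protease–substrate barcode pair counted by paired-end Illumina sequencing.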
Variant,area with substrate ENLAFQS,area with substrate ENLDFQS,area with substrate ENLEFQS,area with substrate ENLFFQS,area with substrate ENLHFQS,area with substrate ENLIFQS,area with substrate ENLKFQS,area with substrate ENLMFQS,area with substrate ENLNFQS,area with substrate ENLPFQS,area with substrate ENLQFQS,area with substrate ENLRFQS,area with substrate ENLSFQS,area with substrate ENLVFQS,area with substrate ENLCFQS,area with substrate ENLLFQS,area with substrate ENLTFQS,area with substrate ENLWFQS,area with substrate ENLGFQS
R51I,0.0633,0.0653,0.0526,0.0744,0.07,0.072,0.0812,0.0753,0.0762,0.0613,0.0594,0.0638,0.0625,0.0704,–,–,–,–,–
H47G,0.0562,0.0593,0.066,0.0561,0.0543,0.0525,0.0584,0.0439,0.0632,0.0645,–,0.0542,0.0511,0.0548,0.0858,0.065,0.0625,0.0545,–
T23G,0.0704,0.0645,0.0704,0.0732,0.0429,0.0605,0.0681,0.0322,0.0573,0.0626,0.0552,0.067,0.0459,–,0.0503,0.0684,–,0.047,0.0845
T23W,0.0752,0.0624,0.109,0.0875,0.0693,0.0874,0.0766,0.067,0.0511,0.0586,0.0665,0.0706,0.0599,0.0681,0.064,0.0756,0.059,0.0846,–
S32F,0.0666,0.0755,0.0408,0.064,0.0665,0.0783,0.0629,–,0.0576,–,0.081,0.0721,0.073,0.0741,–,0.0753,–,–,0.0702
S32K,0.0588,0.0646,0.0599,0.004,–,0.112,0.0841,–,0.0614,0.0461,0.0627,–,–,0.062,–,–,–,–,–
S32V,0.0781,0.0594,0.0675,0.0796,0.0648,0.0946,0.0695,0.0695,0.0615,0.0544,0.0665,0.0765,0.0656,–,0.0735,0.0771,0.0494,0.0632,0.0605
S32T,0.0657,0.0594,0.0535,0.0779,0.0667,0.0879,0.0784,0.0834,–,0.0783,0.0757,0.0659,0.0777,0.0855,–,–,–,0.0705,0.0666
E25C,0.0773,0.0714,0.0637,0.0896,0.077,0.0937,0.078,–,0.0624,0.0457,0.0735,0.0709,0.0636,–,0.0795,0.0821,0.0677,0.0624,0.0461
E25I,0.0487,0.0624,0.0586,0.0821,0.0633,0.0876,0.0679,0.0636,0.06,0.0434,0.0776,0.0747,0.0677,0.0713,0.0892,–,–,0.0626,0.0798
I19G,0.0541,0.0548,0.0572,0.0699,0.0632,–,0.0709,0.0512,0.0558,0.0642,0.0495,0.0735,0.0488,–,0.0623,0.0633,0.0663,0.0684,0.0547
I42S,0.0428,0.0464,0.0523,0.057,0.056,0.0507,0.0518,0.054,0.0516,0.0442,0.048,–,0.047,0.0556,–,0.0331,–,0.0453,0.0491
N13Q,0.0617,0.0566,0.0595,0.0909,0.0631,0.0846,0.0729,0.0584,0.056,0.0606,0.0757,0.0722,0.0473,0.0884,0.0784,–,–,0.0649,0.0688
N13C,0.0697,0.064,0.0642,0.0915,0.0557,0.0892,0.0748,0.0726,0.0666,0.0935,0.0708,0.0623,0.063,0.0815,0.0726,0.0823,–,0.071,–
S17G,0.0656,0.0628,–,0.0861,0.065,–,0.0851,0.0659,0.0663,0.0589,0.0761,0.0692,0.0538,0.101,0.0389,0.0851,–,0.0747,0.0732
S17C,0.0632,0.0535,0.0688,0.0889,0.0746,0.095,0.076,–,0.0606,0.0613,0.0534,0.0686,0.099,–,0.0736,0.0581,–,0.0654,0.0404
L33S,0.0659,0.0723,0.0791,0.0899,0.0677,0.0625,0.0831,–,0.0688,0.0825,0.0706,0.061,0.0682,–,0.0627,0.0717,–,0.0741,0.0512
L33K,0.0666,0.0653,–,0.0703,0.0563,–,0.0712,–,0.0497,0.0619,0.057,0.0713,0.064,–,0.0358,0.0483,–,0.0716,–
E3Y,0.0703,0.063,0.0539,–,–,0.0579,–,–,0.0452,–,–,–,–,–,–,0.0639,–,–,–
F38R,0.0656,0.0572,0.0646,0.0635,0.0572,0.0495,0.0583,0.049,0.0495,–,0.0574,0.048,–,0.0855,0.0433,0.0595,0.0483,0.0562,0.0571
G8M,0.0778,–,–,0.0766,0.0596,–,0.0575,0.064,0.0647,–,–,–,–,–,–,–,–,0.0594,–
N52G,0.0591,0.0579,0.0622,0.0747,0.0682,0.0538,0.105,–,0.0441,0.0618,0.067,0.058,0.0643,–,0.0616,0.0685,–,0.0601,–
N45W,0.06,0.064,0.067,0.0667,0.0568,0.0546,0.0643,0.0553,0.0589,0.0656,0.0528,0.0627,0.0639,0.0573,0.0512,0.0503,0.0746,0.061,0.0713
